About 340 (0.77%) of roughly 44,000 compounds were called active. Roughly 5% stayed inconclusive and do not appear here. Calls come from the whole dose curve; as a rule, active = well fitted inhibition curve with a large enough effect; inconclusive = small, poorly fitted or top-dose-only effect; inactive = flat fitted curve, though single readings scatter. Some of the results follow.
Test: Acumen qHTS Assay for Inhibitors of the mTORC1 Signaling Pathway in MEF (Tsc2-/-, p53-/-) Cells: Sytravon;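 note: plate controls were DMSO for no effect and rapamycin for full effect; nearly all actives have a fitted effect of over 50% in size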
Conditions: phospho-rpS6 immunofluorescence/PI, 24 h; series mostly up to 38.3 µM; activity change, negative = inhibition: at the top concentration
How it was run: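 Tsc2-/-, p53-/- mouse embryonic fibroblasts (empty-vector line) exposed to compound 24 hrs at 37 C, fixed, immunostained for phospho-rpS6 and counterstained with propidium iodide. Acumen laser scanning gives % positive cells from Alexa 488/PI ratio, thresholded using 7.5 nM rapamycin; PI count gives viability.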

Activity change, negative = inhibition, inactive:
CCc1ccccc1NS(=O)(=O)c1ccc2[nH]cc(C(=O)N(CC(C)C)CC(C)C)c(=O)c2c1 -5.67%, COc1ccccc1N1CCN(C(=O)c2cc(CC(C)C)on2)CC1 -25.6%, CCc1ccccc1N(CC)C(=O)c1c(C)oc2ncn(C)c(=O)c12 3.28%, O=C(Nc1ccccc1C(=O)OCc1cc(=O)n2c3c(sc2n1)CCCC3)c1ccc(F)cc1 15.5%, COc1ccc(NC(=O)C2CCN(S(=O)(=O)c3ccc4c(c3)CCCC(=O)N4)CC2)cc1OC -1.37%, Cc1cccc(C(C)C)c1NC(=O)Cn1c(=O)oc2cc(S(=O)(=O)N3CCCC3)ccc21 -19.1%, CCc1ccc2nc(N(CCN(CC)CC)C(=O)c3cccs3)sc2c1 -7.02%, COc1cccc(C(=O)Nc2nc3nc(-c4ccccc4)cc(=O)n3[nH]2)c1 5.57%, O=C1c2oc3ccccc3c(=O)c2C(c2cccc(O)c2)N1c1nncs1 (stereo unspecified) -18.8%, O=C(Cn1c(=O)nc(-c2ccccc2)c2ccccc21)NCCc1ccccc1 2.78%, CCOC(=O)c1c(-c2ccc(C)cc2)csc1NC(=O)c1cc(=O)c2cc(C)ccc2o1 0.927%, CC(=O)c1ccc(NC(=O)CN2C(=O)CN(C)C(=O)c3ccccc32)cc1 4.02%, COc1cccc(CNC(=O)C2=C(C)C(=O)OC23CCN(C(C)=O)CC3)c1OC -5.1%, COc1ccc(-c2oc3ncn4nc(COc5cccc(C)c5C)nc4c3c2-c2ccc(OC)cc2)cc1 -17.2%, COc1cc(Nc2nc(SCc3ccc(Cl)cc3)nc3ccccc23)cc(OC)c1 -4.59%, CCC(C(=O)NCc1cc(OC)ccc1OC)n1nc(C)c2sc3ccccc3c2c1=O (stereo unspecified) -0.84%, CN(C)c1cccc(C(=O)N2CCC(c3c[nH]c4ccccc34)(c3c[nH]c4ccccc34)CC2)c1 -0.156%, Cc1cccc(CNC(=O)c2ccc(N3Cc4ccccc4Oc4ncccc43)s2)c1 -11.2%, COc1cccc(C(=O)N2CCC(C(=O)Nc3cccc(Cl)c3)CC2)c1 -25.3%, COc1cc(C(=O)Nc2ccc(NC(=O)c3ccc(C(C)(C)C)cc3)cc2)cc(OC)c1OC 6.51%, O=C(COCc1cc(-c2cccs2)on1)N1CCN(c2ccccc2)CC1 -6.71%, COc1ccccc1C(=O)Nc1ccc2nc(SCCOc3ccccc3C)sc2c1 -4.29%, CC(C)c1ccc(N2C(=O)CSC23C(=O)N(Cc2cccc(F)c2)c2ccccc23)cc1 (stereo unspecified) -8.43%, COc1ccc(OC)c(CNC(=O)C2CCCN(c3ncnc4onc(-c5ccc(F)cc5)c34)C2)c1 (stereo unspecified) -0.843%, Fc1ccc(NCc2nnc3n2CCCCC3)cc1Cl 0.408%, O=C(Cn1c(=O)oc2cc(S(=O)(=O)NCc3ccccc3)ccc21)Nc1cccc(F)c1 -7.15%

— PubChem BioAssay AID493208 (National Center for Advancing Translational Sciences (NCATS), 2011)
